# Laboratory results taken from the supplement of paper PMC3334620.
# The full ranking holds about 33,000 sequences; the median of “E-score (-0.5 to 0.5)” is about -0.036, and the highest 2% start at about 0.37. This is one part of the list.
# Molecular target: T1, Yer064c (UniProt P40041)
# T1 sequence: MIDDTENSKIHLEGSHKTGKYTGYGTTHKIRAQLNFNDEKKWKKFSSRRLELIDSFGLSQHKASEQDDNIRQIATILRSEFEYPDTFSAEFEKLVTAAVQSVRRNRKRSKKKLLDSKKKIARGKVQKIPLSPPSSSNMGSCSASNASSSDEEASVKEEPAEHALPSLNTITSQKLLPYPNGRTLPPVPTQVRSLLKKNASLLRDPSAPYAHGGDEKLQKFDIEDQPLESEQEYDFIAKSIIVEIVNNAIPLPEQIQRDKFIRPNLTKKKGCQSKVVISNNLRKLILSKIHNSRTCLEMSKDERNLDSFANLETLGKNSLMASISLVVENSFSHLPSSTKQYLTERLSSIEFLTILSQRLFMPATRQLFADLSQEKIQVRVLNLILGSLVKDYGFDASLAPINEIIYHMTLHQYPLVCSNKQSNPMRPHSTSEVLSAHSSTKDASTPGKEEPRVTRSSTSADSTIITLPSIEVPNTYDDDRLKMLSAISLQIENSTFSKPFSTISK
# Assay: PBM E-score (8-mer binding enrichment) (E-score (-0.5 to 0.5)); higher = stronger / more preferred TF binding; most listed sequences are background and not binding sites
# Conditions: protein concentration: 200 nM; construct: GST-full length
# Procedure, shortened: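 GST-tagged yeast TFs (full-length or DNA-binding domain) were made by PURExpress in vitro transcription/translation and applied at about 100-200 nM to universal all-10-mer Agilent arrays. The arrays were made double-stranded by primer extension, on fresh or once-stripped slides. Bound protein was detected with fluorescent anti-GST, and scans were normalised with masliner. Each ungapped eight-base word, pooled with its reverse complement, received an E-score (modified Wilcoxon-Mann-Whitney statistic) from the Universal PBM Analysis Suite.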
row,Sequence,PBM E-score
1,CGCGTTGC,0.064
2,AGTTTTAC,-0.0616
3,CGGGTGCC,-0.315
4,GGGGGTCA,-0.105
5,AGAATTCG,0.0008
6,TGTTTGAA,0.0898
7,ACGTGGTG,-0.207
8,CGGCTAAA,0.19
9,GACGCGTC,-0.23
10,CCTAACGA,-0.0447
11,AACATGCG,0.0179
12,CTCCCCGC,-0.0173
13,AGGAAGTA,-0.112
14,AAAAAGAT,0.0796
15,AGGATGCG,-0.269
16,GTTCCGTA,-0.0386
17,ACTAGAAG,0.142
18,GTATACCA,-0.144
19,AAACACTA,-0.0799
20,AAAAGGGA,-0.137
21,CGCGTTGA,0.078
22,CCGAAGAC,0.107
23,ATCCAGGC,-0.121
24,CTCTAGCC,-0.177
25,GGAAGCCC,-0.374

row,Sequence,PBM E-score
1,CTCGCCGC,-0.0478
2,CGTAGAGA,0.133
3,AACCCGAG,-0.142
4,GGTCCCTA,-0.144
5,CGATATAC,-0.197
6,GCCCTCAA,-0.281
7,CTGTCGTA,-0.00212
8,ACCGGAGA,-0.00273
9,CTCTATTC,-0.151
10,GTTTTACA,-0.0974
11,GTAATGAC,0.258
12,ATCCACGC,-0.172
13,CACTGCGA,-0.0866
14,ACGTGCTA,-0.247
15,CTTCTCAA,0.161
16,GCGTACCC,-0.308
17,AGGAGACA,0.123
18,CTGGGTTC,-0.0562
19,GTAAGAGA,-0.0885
20,ACCTTTAT,-0.00399
21,CAATTCGC,-0.00772
22,GGCGGAGA,-0.0465
23,GCATCGGC,-0.115
24,GTAGGTTA,-0.195
25,GTCTAAGA,0.178

row,Sequence,PBM E-score
1,AACTCGGT,-0.0496
2,AATGAAAT,0.135
3,AGTATCCC,-0.188
4,AACATTGT,-0.00979
5,GCTCTACC,-0.174
6,AAAAAGAA,0.0335
7,TCTCTGAA,0.0685
8,AATTACGG,-0.197
9,ATAGAATC,0.12
10,ACATGATG,-0.051
11,GTTTTTAA,0.0343
12,AACCCATA,0.111
13,ATCGCCGG,0.0496
14,ACCGTCGG,-0.156
15,AGCTCAAC,0.0619
16,AGTGACTG,0.403
17,GCTCCACC,-0.354
18,ACCCCTCG,-0.142
19,CAGTTATC,-0.121
20,AGTGCTGC,-0.0823
21,CTATGAGA,0.141
22,AAACTCTA,-0.00034
23,CAGGTTAA,0.0994
24,AAAATCTA,0.0742
25,AGCTACAA,-0.181

row,Sequence,PBM E-score
1,ATGATGGC,-0.22
2,ACGAGAGA,-0.0232
3,AAATCACA,0.219
4,AAAATAGA,0.0233
5,ATTCAGTC,0.341
6,CGATCCCC,-0.197
7,AGCGGCCA,-0.259
8,GATGCTAC,-0.135
9,CCCGTGCC,-0.103
10,GAGACTCC,0.367
11,CAAAAGTG,-0.0977
12,CGCTGTCC,-0.243
13,AGGAGAGA,0.0683
14,GTCAAGTA,0.08
15,CGAAAGTC,0.23
16,GTCCACTA,-0.0875
17,AGTAAAAG,0.0408
18,AAAGAGTG,-0.0396
19,CACTGCGC,-0.151
20,AACCCAGG,-0.219
21,ATTGCGAA,0.00471
22,AGTCGGTA,-0.0166
23,ACTCTACC,0.115
24,ATCATGCC,0.232
25,TGGAAGAA,-0.0375

row,Sequence,PBM E-score
1,GGTGGTAA,0.0401
2,ATAATTAG,0.0798
3,TCCCATCA,-0.07
4,AAAGCGTC,-0.224
5,ACCATGTG,0.116
6,GTACAAAC,0.025
7,GCGTGGAA,-0.238
8,TATGGTAA,0.0478
9,GGCATGTA,-0.145
10,CATCCACC,-0.0348
11,GTAAGAAA,-0.0634
12,CCAGACCG,-0.301
13,AGCATTGG,0.0859
14,AGCCTCGC,-0.342
15,AACGAGTC,0.42
16,ATTAGTGA,0.219
17,CATAACCA,0.071
18,AGCCCGGC,-0.226
19,AAAGTACT,0.101
20,CCCACAGC,-0.138
21,GCGGAATA,-0.216
22,GCATGAAC,0.0609
23,CGGCGTTC,-0.284
24,CCTAGTAG,0.00521
25,ATTGATAA,0.0604

row,Sequence,PBM E-score
1,CCCGACGA,-0.143
2,CCTGGTAA,-0.137
3,ACCATCGT,0.0188
4,CAGATGGG,-0.0325
5,GTCCCGGA,0.0484
6,CAAGACGG,-0.147
7,ACCGAATA,-0.0568
8,AGCACAAA,0.15
9,GAGTTTTA,0.101
10,CACCATGC,-0.198
11,CCCCTTAA,-0.245
12,TCTCGGCA,-0.152
13,ACACATAA,0.15
14,GCACGCAC,-0.161
15,AACGGGAG,0.0677
16,TCACGCGA,0.0699
17,TAGACGGA,0.12
18,AAGCTGCT,0.0595
19,GAGCTTTA,-0.0198
20,GCGGGACC,-0.276
21,ACCTCACT,0.0302
22,CCTCGAGA,0.0673
23,ACACGTAG,-0.014
24,GTGGCTTA,-0.213
25,CGGTAGGC,-0.178

row,Sequence,PBM E-score
1,CGCAGTCC,0.134
2,GAGGCTTA,-0.197
3,CTTCCAAC,-0.235
4,CGTAGCAA,-0.0716
5,AGTGTACA,-0.133
6,AGGGGAGA,-0.0295
7,TTTTAAAA,0.152
8,CCCCCCTC,-0.416
9,TATAGTAA,0.0693
10,TAGTACGA,0.0633
11,AAGCGCAT,-0.114
12,CGAGTCGC,0.383
13,GACAACAC,-0.161
14,ACCAATTA,-0.0587
15,ACACTACA,0.0888
16,TCCCGCAA,-0.16
17,CGTGACGA,0.0595
18,GATCACGC,0.18
19,ACGGAGGC,-0.34
20,GGAGTTGA,0.0454
21,CCAGTAGG,-0.246
22,CTCCTAGC,-0.122
